Experimental data as given in the RNAGym collection of RNA variant scans (doi:10.7554/elife.90254).
Read counts are not given, so values of variants with three or more changes are uncertain.

B1: LINE1-mini (parent)
chain: GGCAGAGCUCAACACAGCGUGGCAAAGUGGCUGUGGCUAGACUGCC

Variants of: B1
Assay: self-cleavage, relative activity (ratio to wild type); higher = more cleavage; in vitro, sequencing; the parent is a self-cleaving ribozyme

Row | Variant | self-cleavage
1 | G1C A4C A26C | 0.02
2 | G30C U32G G33C | 0.04
3 | G1A C8G A14G U32C G40C | 0.02
4 | G1A C8U U34C | 0.19
5 | C8G G40U G44U | 0.08
6 | C13G A14C G44U | 0.02
7 | G7U C10A C15A G19C G27U G30U | 0.01
8 | G5U C23A G36A | 0.07
9 | C10A C15A G29U G36U | 0
10 | C10U G29A C42U | 0.08
11 | A16G C23U G33C | 0.01
12 | G2C U9C A25G | 0.01
13 | C23A G27A U28A G33A | 0.39
14 | C15U G17A C31A | 0
15 | A6U C10U G36U C37G | 0.01
16 | G5A A12U C23U G30C C31G U34A | 0.01
17 | A14G G19A C42A | 0.18
18 | C8A C13A G29U | 0.13
19 | C8A G27C A39G | 0.02
20 | C8G C13G A14U G17C G29A U32A C42U U43G | 0.07
21 | C23U A26C G29U G33U G36U G40A | 0.04

Row | Variant | self-cleavage
22 | U20C U43C C45U | 0.01
23 | A11C G29U C42A | 0.04
24 | G2U A6G A11U C46G | 0
25 | U9C G22U G36A | 0.16
26 | G5U G7A G30A | 0.2
27 | C8A A11U U20C C37G | 0.01
28 | C8U U9C G22A G36U C45A | 0.01
29 | C8U U9A G19A A24G G40U | 0.1
30 | C3U U20A U32G | 0.06
31 | A14C G21A C23U | 0.07
32 | C18U C31A A39G | 0.13
33 | G22U A24G G30U G44C | 0.19
34 | G17A U28G G29A U34C G40C | 0.05
35 | A11G G19U G29A G33A | 0.01
36 | C10G G17U C46A | 0.05
37 | G7C C8U C13A A16C | 0.04
38 | A12C C31U G33C | 0.01
39 | G2C G5A A6G A25C U28C | 0.04
40 | A12C G17A G21A G36A C42A | 0.01
41 | C13A G27A C31A | 0.07
42 | A26C G29A U32G | 0.3

Row | Variant | self-cleavage
43 | A4C C18U G35A C45U | 0.03
44 | C3A A14G C23A A26C U32A | 0.08
45 | A4G A11G G19U | 0.04
46 | U9G A39G A41G C46A | 0
47 | G5U C18A C46U | 0.08
48 | A6U A12U A14G G33U | 0.01
49 | C13A G27C U38G C42A | 0.01
50 | G2C U9G C13U A14C C23U | 0.07
51 | C15A A39U C42A | 0.43
52 | C13U G22A U38G | 0.01
53 | C8G U32A C37G | 0
54 | G5U A26G C31A U34A A41C C46A | 0
55 | G17A C18U A41G | 0.04
56 | A11G A26G C46A | 0.04
57 | G19A G27C U43A | 0.03
58 | G2A A6C G17A | 0.09
59 | G7U C10A C18U | 0.03
60 | G17U C18U G29U G35C C37U | 0.02
61 | G29A G33U C37U | 0.06
62 | C3A C18A G22A A25U A26C U34G G40A | 0
63 | G21A C31A A41G | 0.06

Row | Variant | self-cleavage
64 | G7U C8G A14U A26U U43A | 0.16
65 | C13U G21C G36C | 0.05
66 | A6C U9A G21C C46G | 0.17
67 | C15A G19U A25U | 0.04
68 | A4U G19C U20G G35U | 0.06
69 | G5U G17U C37U C46A | 0.01
70 | G2C A6U G27C | 0.01
71 | G1A C10A A14C C15U G22C G27U G29A U34C | 0.02
72 | A6U U20G A41G C42A | 0.01
73 | G1A G5A U38C C46A | 0.1
74 | C3G G7C A41G G44A | 0.01
75 | C10G C13A U34C G35U C37U G44A | 0.02
76 | C10A A16U G29C | 0.01
77 | C3U U20C A26C | 0.06
78 | A4G A12C C42G G44C C46A | 0.01
79 | G2U A24C G36A A41C | 0.09
80 | A12U G17U C31A | 0.08
81 | G5U C15G G21C U32C U38G G40C A41U | 0.01
82 | A4G C10U A24C G27A G29C | 0.01
83 | G5U A14U A24U A41G | 0.04
